# Experimental data published in the supplement of paper PMC8728848.
# Some of the results follow.
# B1: LFA (Limax flavus) (protein)
# chain: MSVLFLAASFLLLASFELVAAQGCPRQDPGDWIVIQRRLNADVNFYRGWADYKHGFGDLRCNFWLGNEKIHQLTSHGRYKLRVEFTFNNKSYFAEYSTFKILGEADKYKLQVGGYSGNAGDALTFHNGMAFSTNDRDNDADSIDCAKVYHGAWWYKTCHESNLNGKWGSKKYGEGLNWKAKTTFTATATSSLLKIKALK
# Columns and labels:
# Assay in all cases: glycan array binding signal (z-score within array); higher = stronger binding
# Conditions in all cases: glycan notation: IUPAC condensed, linker removed
# [1] = target: GlcNAc(a1-6)Gal(b1-4)GlcNAc
# In short: (§1)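 Glycan array binding is given as a within-array Z-score, which can be read as non-binding when negative. The arrays, 3228 of them, came from the Consortium for Functional Glycomics database and were retained only where the protein sequence was available. Z-scores were averaged across arrays of the same protein sequence at different concentrations or buffers and across linkers.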
# [2] = target: GlcNAc(b1-2)Gal(b1-3)GalNAc
# In short: as §1
# [3] = target: GlcNAc(b1-2)Man(a1-3)[GlcNAc(b1-2)Man(a1-6)]Man(b1-4)GlcNAc(b1-4)GlcNAc
# In short: as §1
# [4] = target: GlcNAc(b1-2)Man(a1-3)[GlcNAc(b1-2)Man(a1-6)]Man(b1-4)GlcNAc(b1-4)[Fuc(a1-6)]GlcNAc
# In short: as §1
# [5] = target: GlcNAc(b1-2)Man(a1-3)[GlcNAc(b1-4)][GlcNAc(b1-2)Man(a1-6)]Man(b1-4)GlcNAc(b1-4)GlcNAc
# In short: as §1
# [6] = target: GlcNAc(b1-2)Man(a1-3)[GlcNAc(b1-4)][GlcNAc(b1-2)Man(a1-6)]Man(b1-4)GlcNAc(b1-4)[Fuc(a1-6)]GlcNAc
# In short: as §1
# [7] = target: GlcNAc(b1-2)[GlcNAc(b1-4)]Man(a1-3)[GlcNAc(b1-2)Man(a1-6)]Man(b1-4)GlcNAc(b1-4)GlcNAc
# In short: as §1
# [8] = target: GlcNAc(b1-2)[GlcNAc(b1-4)]Man(a1-3)[GlcNAc(b1-4)][GlcNAc(b1-2)Man(a1-6)]Man(b1-4)GlcNAc(b1-4)GlcNAc
# In short: as §1
# [9] = target: GlcNAc(b1-2)[GlcNAc(b1-4)]Man(a1-3)[GlcNAc(b1-4)][GlcNAc(b1-2)[GlcNAc(b1-6)]Man(a1-6)]Man(b1-4)GlcNAc(b1-4)GlcNAc
# In short: as §1
# [10] = target: GlcNAc(b1-2)[GlcNAc(b1-4)]Man(a1-3)[GlcNAc(b1-4)][GlcNAc(b1-2)[GlcNAc(b1-6)]Man(a1-6)]Man(b1-4)GlcNAc(b1-4)[Fuc(a1-6)]GlcNAc
# In short: as §1
# [11] = target: GlcNAc(b1-2)[GlcNAc(b1-6)]Man(a1-6)[GlcNAc(b1-2)Man(a1-3)]Man(b1-4)GlcNAc(b1-4)GlcNAc
# In short: as §1
# [12] = target: GlcNAc(b1-2)[GlcNAc(b1-6)]Man(a1-6)[GlcNAc(b1-2)Man(a1-3)]Man(b1-4)GlcNAc(b1-4)[Fuc(a1-6)]GlcNAc
# In short: as §1
# [13] = target: GlcNAc(b1-2)[GlcNAc(b1-6)]Man(a1-6)[GlcNAc(b1-4)][GlcNAc(b1-2)Man(a1-3)]Man(b1-4)GlcNAc(b1-4)GlcNAc
# In short: as §1
# [14] = target: GlcNAc(b1-3)Fuc
# In short: as §1
# [15] = target: GlcNAc(b1-3)Gal
# In short: as §1
# [16] = target: GlcNAc(b1-3)Gal(b1-3)GalNAc
# In short: as §1
# [17] = target: GlcNAc(b1-3)Gal(b1-4)Glc
# In short: as §1
# [18] = target: GlcNAc(b1-3)Gal(b1-4)GlcNAc
# In short: as §1
# [19] = target: GlcNAc(b1-3)Gal(b1-4)GlcNAc(b1-2)Man(a1-3)[GlcNAc(b1-3)Gal(b1-4)GlcNAc(b1-2)Man(a1-6)]Man(b1-4)GlcNAc(b1-4)GlcNAc
# In short: as §1
# [20] = target: GlcNAc(b1-3)Gal(b1-4)GlcNAc(b1-2)Man(a1-3)[GlcNAc(b1-3)Gal(b1-4)GlcNAc(b1-2)Man(a1-6)]Man(b1-4)GlcNAc(b1-4)[Fuc(a1-6)]GlcNAc
# In short: as §1
# [21] = target: GlcNAc(b1-3)Gal(b1-4)GlcNAc(b1-2)[GlcNAc(b1-3)Gal(b1-4)GlcNAc(b1-6)]Man(a1-6)[GlcNAc(b1-3)Gal(b1-4)GlcNAc(b1-2)Man(a1-3)]Man(b1-4)GlcNAc(b1-4)GlcNAc
# In short: as §1
# [22] = target: GlcNAc(b1-3)Gal(b1-4)GlcNAc(b1-3)Gal(b1-4)GlcNAc
# In short: as §1
# [23] = target: GlcNAc(b1-3)Gal(b1-4)GlcNAc(b1-3)Gal(b1-4)GlcNAc(b1-2)Man(a1-3)[GlcNAc(b1-3)Gal(b1-4)GlcNAc(b1-3)Gal(b1-4)GlcNAc(b1-2)Man(a1-6)]Man(b1-4)GlcNAc(b1-4)GlcNAc
# In short: as §1
# [24] = target: GlcNAc(b1-3)Gal(b1-4)GlcNAc(b1-3)Gal(b1-4)GlcNAc(b1-2)Man(a1-3)[GlcNAc(b1-3)Gal(b1-4)GlcNAc(b1-3)Gal(b1-4)GlcNAc(b1-2)Man(a1-6)]Man(b1-4)GlcNAc(b1-4)[Fuc(a1-6)]GlcNAc
# In short: as §1
# [25] = target: GlcNAc(b1-3)Gal(b1-4)GlcNAc(b1-3)Gal(b1-4)GlcNAc(b1-2)[GlcNAc(b1-3)Gal(b1-4)GlcNAc(b1-3)Gal(b1-4)GlcNAc(b1-6)]Man(a1-6)[GlcNAc(b1-3)Gal(b1-4)GlcNAc(b1-3)Gal(b1-4)GlcNAc(b1-2)Man(a1-3)]Man(b1-4)GlcNAc(b1-4)[Fuc(a1-6)]GlcNAc
# In short: as §1
# [26] = target: GlcNAc(b1-3)Gal(b1-4)GlcNAc(b1-3)Gal(b1-4)GlcNAc(b1-3)Gal(b1-4)GlcNAc(b1-2)Man(a1-3)[GlcNAc(b1-3)Gal(b1-4)GlcNAc(b1-3)Gal(b1-4)GlcNAc(b1-3)Gal(b1-4)GlcNAc(b1-2)Man(a1-6)]Man(b1-4)GlcNAc(b1-4)GlcNAc
# In short: as §1
# [27] = target: GlcNAc(b1-3)Gal(b1-4)GlcNAc(b1-3)Gal(b1-4)GlcNAc(b1-3)Gal(b1-4)GlcNAc(b1-2)Man(a1-3)[GlcNAc(b1-3)Gal(b1-4)GlcNAc(b1-3)Gal(b1-4)GlcNAc(b1-3)Gal(b1-4)GlcNAc(b1-2)Man(a1-6)]Man(b1-4)GlcNAc(b1-4)[Fuc(a1-6)]GlcNAc
# In short: as §1
# [28] = target: GlcNAc(b1-3)Gal(b1-4)GlcNAc(b1-3)Gal(b1-4)GlcNAc(b1-3)Gal(b1-4)GlcNAc(b1-2)[GlcNAc(b1-3)Gal(b1-4)GlcNAc(b1-3)Gal(b1-4)GlcNAc(b1-3)Gal(b1-4)GlcNAc(b1-6)]Man(a1-6)[GlcNAc(b1-3)Gal(b1-4)GlcNAc(b1-3)Gal(b1-4)GlcNAc(b1-3)Gal(b1-4)GlcNAc(b1-2)Man(a1-3)]Man(b1-4)GlcNAc(b1-4)[Fuc(a1-6)]GlcNAc
# In short: as §1
# [29] = target: GlcNAc(b1-3)Gal(b1-4)GlcNAc(b1-3)Gal(b1-4)GlcNAc(b1-3)Gal(b1-4)GlcNAc(b1-3)Gal(b1-4)GlcNAc(b1-2)Man(a1-3)[GlcNAc(b1-3)Gal(b1-4)GlcNAc(b1-3)Gal(b1-4)GlcNAc(b1-3)Gal(b1-4)GlcNAc(b1-3)Gal(b1-4)GlcNAc(b1-2)Man(a1-6)]Man(b1-4)GlcNAc(b1-4)GlcNAc
# In short: as §1
# [30] = target: GlcNAc(b1-3)Gal(b1-4)GlcNAc(b1-3)Gal(b1-4)GlcNAc(b1-3)Gal(b1-4)GlcNAc(b1-3)Gal(b1-4)GlcNAc(b1-2)Man(a1-3)[GlcNAc(b1-3)Gal(b1-4)GlcNAc(b1-3)Gal(b1-4)GlcNAc(b1-3)Gal(b1-4)GlcNAc(b1-3)Gal(b1-4)GlcNAc(b1-2)Man(a1-6)]Man(b1-4)GlcNAc(b1-4)[Fuc(a1-6)]GlcNAc
# In short: as §1
# [31] = target: GlcNAc(b1-3)Gal(b1-4)GlcNAc(b1-3)Gal(b1-4)GlcNAc(b1-3)Gal(b1-4)GlcNAc(b1-3)Gal(b1-4)GlcNAc(b1-2)[GlcNAc(b1-3)Gal(b1-4)GlcNAc(b1-3)Gal(b1-4)GlcNAc(b1-3)Gal(b1-4)GlcNAc(b1-3)Gal(b1-4)GlcNAc(b1-6)]Man(a1-6)[GlcNAc(b1-3)Gal(b1-4)GlcNAc(b1-3)Gal(b1-4)GlcNAc(b1-3)Gal(b1-4)GlcNAc(b1-3)Gal(b1-4)GlcNAc(b1-2)Man(a1-3)]Man(b1-4)GlcNAc(b1-4)[Fuc(a1-6)]GlcNAc
# In short: as §1
# [32] = target: GlcNAc(b1-3)Gal(b1-4)GlcNAc(b1-3)Gal(b1-4)GlcNAc(b1-3)GalNAc
# In short: as §1
# [33] = target: GlcNAc(b1-3)Gal(b1-4)GlcNAc(b1-3)GalNAc
# In short: as §1
# [34] = target: GlcNAc(b1-3)Gal(b1-4)GlcNAc(b1-3)[GlcNAc(b1-3)Gal(b1-4)GlcNAc(b1-3)]GalNAc
# In short: as §1
# [35] = target: GlcNAc(b1-3)Gal(b1-4)GlcNAc(b1-6)[Gal(b1-3)]GalNAc
# In short: as §1
# [36] = target: GlcNAc(b1-3)Gal(b1-4)GlcNAc(b1-6)[GlcNAc(b1-3)Gal(b1-3)]GalNAc
# In short: as §1
# [37] = target: GlcNAc(b1-3)Gal(b1-4)GlcNAc(b1-6)[GlcNAc(b1-3)]Gal(b1-4)GlcNAc
# In short: as §1
# [38] = target: GlcNAc(b1-3)GalNAc
# In short: as §1
# [39] = target: GlcNAc(b1-3)Man
# In short: as §1
# [40] = target: GlcNAc(b1-3)[GlcNAc(b1-4)][GlcNAc(b1-6)]GlcNAc
# In short: as §1
# [41] = target: GlcNAc(b1-3)[GlcNAc(b1-6)]Gal(b1-4)GlcNAc
# In short: as §1
# [42] = target: GlcNAc(b1-3)[GlcNAc(b1-6)]GalNAc
# In short: as §1
# [43] = target: GlcNAc(b1-4)Gal(b1-4)GlcNAc
# In short: as §1
# [44] = target: GlcNAc(b1-4)GlcNAc
# In short: as §1
# [45] = target: GlcNAc(b1-4)GlcNAc(b1-4)GlcNAc
# In short: as §1
binder,measurement,setting,value
B1,glycan array binding signal (z-score),[1],-0.363
same,glycan array binding signal (z-score),[2],0.358
same,glycan array binding signal (z-score),[3],-0.239
same,glycan array binding signal (z-score),[4],-0.261
same,glycan array binding signal (z-score),[5],-0.317
same,glycan array binding signal (z-score),[6],-0.303
same,glycan array binding signal (z-score),[7],-0.301
same,glycan array binding signal (z-score),[8],-0.322
same,glycan array binding signal (z-score),[9],-0.213
same,glycan array binding signal (z-score),[10],0.243
same,glycan array binding signal (z-score),[11],-0.242
same,glycan array binding signal (z-score),[12],-0.347
same,glycan array binding signal (z-score),[13],-0.03
same,glycan array binding signal (z-score),[14],-0.355
same,glycan array binding signal (z-score),[15],-0.16
same,glycan array binding signal (z-score),[16],0.309
same,glycan array binding signal (z-score),[17],-0.284
same,glycan array binding signal (z-score),[18],-0.243
same,glycan array binding signal (z-score),[19],-0.217
same,glycan array binding signal (z-score),[20],-0.066
same,glycan array binding signal (z-score),[21],0.062
same,glycan array binding signal (z-score),[22],-0.289
same,glycan array binding signal (z-score),[23],1.96
same,glycan array binding signal (z-score),[24],0.015
same,glycan array binding signal (z-score),[25],0.76
same,glycan array binding signal (z-score),[26],0.458
same,glycan array binding signal (z-score),[27],0.314
same,glycan array binding signal (z-score),[28],1.25
same,glycan array binding signal (z-score),[29],0.512
same,glycan array binding signal (z-score),[30],0.07
same,glycan array binding signal (z-score),[31],1.75
same,glycan array binding signal (z-score),[32],-0.094
same,glycan array binding signal (z-score),[33],-0.213
same,glycan array binding signal (z-score),[34],-0.336
same,glycan array binding signal (z-score),[35],-0.288
same,glycan array binding signal (z-score),[36],-0.285
same,glycan array binding signal (z-score),[37],-0.245
same,glycan array binding signal (z-score),[38],0.047
same,glycan array binding signal (z-score),[39],-0.321
same,glycan array binding signal (z-score),[40],-0.405
same,glycan array binding signal (z-score),[41],-0.31
same,glycan array binding signal (z-score),[42],-0.297
same,glycan array binding signal (z-score),[43],-0.422
same,glycan array binding signal (z-score),[44],-0.267
same,glycan array binding signal (z-score),[45],-0.226
